Experimental data: the supplement of paper PMC12217912
This is one part of the list. The full chains were built here from the parent and the listed change. Inactive controls read about 0.05.

B1: TEV protease; numbered along this chain (parent)
chain: MGESLFKGPRDYNPISSSICHLTNESDGHTTSLYGIGFGPFIITNKHLFRRNNGTLVVQSLHGVFKVKDTTTLQQHLVDGRDMIIIRMPKDFPPFPQKLKFREPQREERICLVTTNFQTKSMSSMVSDTSCTFPSGDGIFWKHWIQTKDGQCGSPLVSTRDGFIVGIHSASNFTNTNNYFTSVPKNFMELLTNQEAQQWVSGWRLNADSVLWGGHKVFMVKPEEPFQPVKEATQL

Variants of: B1
Assay: raw area under fraction-flipped curve 0-4 h after induction (AUC4h, not background-subtracted), DNA-recorder readout of cleavage of the substrate (dimensionless); higher = more cleavage of the substrate by the protease variant
Details: temperature: 34 °C; time window: 0-4 h after rhamnose induction
Protocol: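 In vivo DNA recorder in E. coli TOP10(DE3) ΔrhaA at 34 °C. Each TEVp single-site mutant (parent TEVp 0) is paired with a single-site variant of the 7-mer TEVs (canonical ENLYFQ|S). The substrate sits between flexible linkers in a Bxb1-sfGFP-TEVs-SsrA fusion, so cleavage stabilises Bxb1 and speeds flipping of a recombination array, read by NGS. The value is the raw area under the fraction-flipped curve over 0-4 h after rhamnose induction (AUC4h), with ≥20 reads per time point. It is not background-subtracted; inactive controls average about 0.047.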
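Note: Bxb1 expression induced with 0.2% (w/v) L-rhamnose at OD600 near 0.5, cultures sampled hourly, flipped fraction per protease–substrate barcode pair counted by paired-end Illumina sequencing.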

Row | Variant | area with substrate ANLYFQS | area with substrate CNLYFQS | area with substrate FNLYFQS | area with substrate GNLYFQS | area with substrate HNLYFQS | area with substrate INLYFQS | area with substrate KNLYFQS | area with substrate LNLYFQS | area with substrate MNLYFQS | area with substrate NNLYFQS | area with substrate PNLYFQS | area with substrate QNLYFQS | area with substrate RNLYFQS | area with substrate SNLYFQS | area with substrate TNLYFQS | area with substrate WNLYFQS | area with substrate YNLYFQS | area with substrate DNLYFQS | area with substrate VNLYFQS
1 | I43C | 0.0677 | 0.0614 | 0.0653 | 0.0451 | 0.0541 | 0.081 | 0.0555 | 0.0715 | 0.0583 | 0.0593 | 0.0658 | 0.0686 | 0.0489 | 0.076 | 0.06 | 0.0624 | 0.0561 |  | 
2 | D69I | 0.0666 | 0.0643 |  |  | 0.0486 | 0.0714 | 0.0555 | 0.0904 |  | 0.0705 |  |  | 0.0587 | 0.059 |  | 0.0514 |  | 0.0692 | 
3 | D69R | 0.0691 | 0.0654 |  | 0.0785 | 0.0659 | 0.0689 | 0.0585 | 0.0612 | 0.0509 | 0.061 | 0.0479 |  |  | 0.0614 | 0.0592 | 0.061 |  |  | 0.0594
4 | D69C | 0.0527 | 0.0708 |  | 0.0824 | 0.0599 | 0.0701 | 0.0519 |  |  |  | 0.0364 |  |  |  | 0.0634 | 0.0577 | 0.0668 | 0.0851 | 
5 | F65T | 0.0657 | 0.0496 |  |  | 0.0495 | 0.0638 |  | 0.0706 | 0.0677 |  | 0.0555 |  |  | 0.111 | 0.0967 |  | 0.0611 |  | 0.0609
6 | T55Y | 0.0512 |  |  | 0.0541 | 0.0599 |  | 0.0742 |  |  |  | 0.0719 |  |  | 0.0825 | 0.0606 |  |  | 0.0651 | 0.0703
7 | P40E | 0.074 |  |  |  | 0.0655 | 0.0939 | 0.0753 | 0.085 |  |  | 0.0604 |  |  |  | 0.0914 | 0.0646 | 0.0638 | 0.0705 | 
8 | V58K | 0.0411 | 0.0543 | 0.0336 |  |  | 0.0289 | 0.0505 | 0.0356 |  | 0.0439 | 0.0602 |  | 0.0642 | 0.0472 |  | 0.0788 | 0.0501 |  | 
9 | F49C | 0.0359 | 0.0559 |  | 0.0781 | 0.0482 | 0.0456 | 0.0493 | 0.066 | 0.0609 |  | 0.0745 |  |  | 0.0491 | 0.0581 | 0.0307 | 0.054 |  | 
10 | N45A | 0.0657 | 0.0463 | 0.0562 | 0.0661 | 0.0475 | 0.0536 | 0.0643 | 0.0459 | 0.0618 |  | 0.0666 |  | 0.0588 | 0.0573 | 0.0592 | 0.0579 | 0.0485 |  | 0.0517
11 | N45K | 0.0451 | 0.0588 | 0.0588 | 0.0448 | 0.0543 |  | 0.0578 | 0.0461 | 0.0505 | 0.0658 | 0.0541 |  |  | 0.0499 | 0.0576 | 0.0604 | 0.0553 |  | 0.0714
12 | I42N | 0.0642 | 0.0467 |  | 0.0392 | 0.0462 |  |  | 0.053 | 0.0414 | 0.0419 | 0.0276 |  |  | 0.0443 | 0.0397 | 0.0347 |  |  | 
13 | I42H | 0.037 | 0.0605 |  |  | 0.0615 |  |  | 0.045 |  | 0.0607 | 0.0379 |  |  | 0.0341 | 0.0457 | 0.0452 | 0.0301 |  | 
14 | G54T | 0.0701 |  | 0.018 | 0.0375 | 0.0581 | 0.0478 | 0.0565 | 0.0536 | 0.0595 | 0.043 |  |  |  | 0.0576 | 0.0643 | 0.071 | 0.0486 | 0.0626 | 
